# Reference: the supplement of paper PMC8728848
# This is one part of the list.
# How the values were obtained:
# Test in all cases: glycan array binding signal (z-score within array); higher = stronger binding
# Conditions in all cases: glycan notation: IUPAC condensed, linker removed
# [1] = target: Gal(b1-4)GlcNAc(b1-2)Man(a1-6)[Man(a1-3)]Man(b1-4)GlcNAc(b1-4)GlcNAc
# Summary of the method: (§1)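 From the Consortium for Functional Glycomics database, 3228 arrays were curated, keeping only those whose protein sequence was available. Binding is given as a within-array Z-score averaged across arrays sharing a protein sequence and across linkers. Negative Z-scores can be read as non-binding.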
# [2] = target: Gal(b1-4)GlcNAc(b1-2)[Gal(b1-4)GlcNAc(b1-4)]Man(a1-3)[Gal(b1-4)GlcNAc(b1-2)Man(a1-6)]Man(b1-4)GlcNAc(b1-4)GlcNAc
# Summary of the method: as §1
# [3] = target: Gal(b1-4)GlcNAc(b1-2)[Gal(b1-4)GlcNAc(b1-4)]Man(a1-3)[Gal(b1-4)GlcNAc(b1-2)[Gal(b1-4)GlcNAc(b1-6)]Man(a1-6)]Man(b1-4)GlcNAc(b1-4)GlcNAc
# Summary of the method: as §1
# [4] = target: Gal(b1-4)GlcNAc(b1-2)[Gal(b1-4)GlcNAc(b1-4)]Man(a1-3)[GlcNAc(b1-4)][Gal(b1-4)GlcNAc(b1-2)Man(a1-6)]Man(b1-4)GlcNAc(b1-4)GlcNAc
# Summary of the method: as §1
# [5] = target: Gal(b1-4)GlcNAc(b1-2)[Gal(b1-4)GlcNAc(b1-4)]Man(a1-3)[GlcNAc(b1-4)][Gal(b1-4)GlcNAc(b1-2)[Gal(b1-4)GlcNAc(b1-6)]Man(a1-6)]Man(b1-4)GlcNAc(b1-4)GlcNAc
# Summary of the method: as §1
# [6] = target: Gal(b1-4)GlcNAc(b1-2)[Gal(b1-4)GlcNAc(b1-6)]Man(a1-6)[Gal(b1-4)GlcNAc(b1-2)Man(a1-3)]Man(b1-4)GlcNAc(b1-4)GlcNAc
# Summary of the method: as §1
# [7] = target: Gal(b1-4)GlcNAc(b1-2)[Gal(b1-4)GlcNAc(b1-6)]Man(a1-6)[Gal(b1-4)GlcNAc(b1-2)Man(a1-3)]Man(b1-4)GlcNAc(b1-4)[Fuc(a1-6)]GlcNAc
# Summary of the method: as §1
# [8] = target: Gal(b1-4)GlcNAc(b1-2)[Gal(b1-4)GlcNAc(b1-6)]Man(a1-6)[GlcNAc(b1-4)][Gal(b1-4)GlcNAc(b1-2)Man(a1-3)]Man(b1-4)GlcNAc(b1-4)GlcNAc
# Summary of the method: as §1
# [9] = target: Gal(b1-4)GlcNAc(b1-2)[Gal(b1-4)GlcNAc(b1-6)]Man(a1-6)[GlcNAc(b1-4)][Gal(b1-4)GlcNAc(b1-2)[Gal(b1-4)GlcNAc(b1-4)]Man(a1-3)]Man(b1-4)GlcNAc(b1-4)[Fuc(a1-6)]GlcNAc
# Summary of the method: as §1
# [10] = target: Gal(b1-4)GlcNAc(b1-3)Gal(b1-3)GalNAc
# Summary of the method: as §1
# [11] = target: Gal(b1-4)GlcNAc(b1-3)Gal(b1-3)GlcNAc
# Summary of the method: as §1
# [12] = target: Gal(b1-4)GlcNAc(b1-3)Gal(b1-4)Glc
# Summary of the method: as §1
# [13] = target: Gal(b1-4)GlcNAc(b1-3)Gal(b1-4)GlcNAc
# Summary of the method: as §1
# [14] = target: Gal(b1-4)GlcNAc(b1-3)Gal(b1-4)GlcNAc(b1-2)Man(a1-3)[Gal(b1-4)GlcNAc(b1-3)Gal(b1-4)GlcNAc(b1-2)Man(a1-6)]Man(b1-4)GlcNAc(b1-4)GlcNAc
# Summary of the method: as §1
# [15] = target: Gal(b1-4)GlcNAc(b1-3)Gal(b1-4)GlcNAc(b1-2)Man(a1-3)[Gal(b1-4)GlcNAc(b1-3)Gal(b1-4)GlcNAc(b1-2)Man(a1-6)]Man(b1-4)GlcNAc(b1-4)[Fuc(a1-6)]GlcNAc
# Summary of the method: as §1
# [16] = target: Gal(b1-4)GlcNAc(b1-3)Gal(b1-4)GlcNAc(b1-2)[Gal(b1-4)GlcNAc(b1-3)Gal(b1-4)GlcNAc(b1-6)]Man(a1-6)[Gal(b1-4)GlcNAc(b1-3)Gal(b1-4)GlcNAc(b1-2)Man(a1-3)]Man(b1-4)GlcNAc(b1-4)GlcNAc
# Summary of the method: as §1
# [17] = target: Gal(b1-4)GlcNAc(b1-3)Gal(b1-4)GlcNAc(b1-2)[Gal(b1-4)GlcNAc(b1-3)Gal(b1-4)GlcNAc(b1-6)]Man(a1-6)[Gal(b1-4)GlcNAc(b1-3)Gal(b1-4)GlcNAc(b1-2)Man(a1-3)]Man(b1-4)GlcNAc(b1-4)[Fuc(a1-6)]GlcNAc
# Summary of the method: as §1
# [18] = target: Gal(b1-4)GlcNAc(b1-3)Gal(b1-4)GlcNAc(b1-3)Gal(b1-4)GlcNAc
# Summary of the method: as §1
binder,measurement,setting,value
PX14343H-pdi-506-26-506 (Parabacteroides distasonis) (protein) QPTGTMTTDSKLTSKESALALTNSAYLKNTVFNKMTPGWGCNTILLLEYMTGKATSENSQSNYKDFQDLLVSDRSLYIEDWWQDCYAGIANCNLALQKLGEFENLDASLVNGYMAEVKFMRALYYFYLVRIFGDVPKITTVQSELGELQVSRAPVKEIYDEIIIPDLLEAEQSDLAFSDHTGRVSMGAVKALLADVYLTYAGYPLQGGKSYYAESAKRSLEVIKSNEYTLFTDYESLRLPSQNNKGEFIYQVQFSLNKRHNESVRIFLPSRSGISAYDLEYGSLIPTKEFVESFEKGDKRTEEKQYFFTNYKGHPSKFSPGAAELEFMDLNGYYIYKFFDQVAVDNTAKSDLNWSVYRYTDVLLMYAEAQVNADGTPNQQSIDIVNQIRGRAGLAPFKQTNASAFLEEVWDQRYFDLCYENKMWFDMLRTRKIRDDKSGEYVDFIGYKTNWGKVYTETQLLFPIPLSERQANPNLTQNQGY,glycan array binding signal (z-score),[1],5.33
same,glycan array binding signal (z-score),[2],0.486
same,glycan array binding signal (z-score),[3],-0.221
same,glycan array binding signal (z-score),[4],0.393
same,glycan array binding signal (z-score),[5],3.03
same,glycan array binding signal (z-score),[6],0.998
same,glycan array binding signal (z-score),[7],0.886
same,glycan array binding signal (z-score),[8],1.36
same,glycan array binding signal (z-score),[9],-0.104
same,glycan array binding signal (z-score),[10],-0.046
same,glycan array binding signal (z-score),[11],-0.366
same,glycan array binding signal (z-score),[12],-0.288
same,glycan array binding signal (z-score),[13],0.019
same,glycan array binding signal (z-score),[14],-0.082
same,glycan array binding signal (z-score),[15],6.92
same,glycan array binding signal (z-score),[16],1.14
same,glycan array binding signal (z-score),[17],1.4
same,glycan array binding signal (z-score),[18],-0.114
